Measurements taken from publication PMC4336329 (PLoS ONE, 2015).
Hit rate of the full screen: of about 310,000 compounds, about 14,000 (4.5%) showed an effect of 50% or more. The effect is printed as a negative number. Some of the results follow.

target: human ether-à-go-go-related gene (hERG) potassium channel (human, UniProt Q12809); assay: primary screen, population patch clamp on CHO cells stably expressing hERG
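Also: peak tail current of the secondary pulse compared with the same well before compound.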

Chain of human ether-à-go-go-related gene (hERG) potassium channel (Q12809 whole entry, looked up): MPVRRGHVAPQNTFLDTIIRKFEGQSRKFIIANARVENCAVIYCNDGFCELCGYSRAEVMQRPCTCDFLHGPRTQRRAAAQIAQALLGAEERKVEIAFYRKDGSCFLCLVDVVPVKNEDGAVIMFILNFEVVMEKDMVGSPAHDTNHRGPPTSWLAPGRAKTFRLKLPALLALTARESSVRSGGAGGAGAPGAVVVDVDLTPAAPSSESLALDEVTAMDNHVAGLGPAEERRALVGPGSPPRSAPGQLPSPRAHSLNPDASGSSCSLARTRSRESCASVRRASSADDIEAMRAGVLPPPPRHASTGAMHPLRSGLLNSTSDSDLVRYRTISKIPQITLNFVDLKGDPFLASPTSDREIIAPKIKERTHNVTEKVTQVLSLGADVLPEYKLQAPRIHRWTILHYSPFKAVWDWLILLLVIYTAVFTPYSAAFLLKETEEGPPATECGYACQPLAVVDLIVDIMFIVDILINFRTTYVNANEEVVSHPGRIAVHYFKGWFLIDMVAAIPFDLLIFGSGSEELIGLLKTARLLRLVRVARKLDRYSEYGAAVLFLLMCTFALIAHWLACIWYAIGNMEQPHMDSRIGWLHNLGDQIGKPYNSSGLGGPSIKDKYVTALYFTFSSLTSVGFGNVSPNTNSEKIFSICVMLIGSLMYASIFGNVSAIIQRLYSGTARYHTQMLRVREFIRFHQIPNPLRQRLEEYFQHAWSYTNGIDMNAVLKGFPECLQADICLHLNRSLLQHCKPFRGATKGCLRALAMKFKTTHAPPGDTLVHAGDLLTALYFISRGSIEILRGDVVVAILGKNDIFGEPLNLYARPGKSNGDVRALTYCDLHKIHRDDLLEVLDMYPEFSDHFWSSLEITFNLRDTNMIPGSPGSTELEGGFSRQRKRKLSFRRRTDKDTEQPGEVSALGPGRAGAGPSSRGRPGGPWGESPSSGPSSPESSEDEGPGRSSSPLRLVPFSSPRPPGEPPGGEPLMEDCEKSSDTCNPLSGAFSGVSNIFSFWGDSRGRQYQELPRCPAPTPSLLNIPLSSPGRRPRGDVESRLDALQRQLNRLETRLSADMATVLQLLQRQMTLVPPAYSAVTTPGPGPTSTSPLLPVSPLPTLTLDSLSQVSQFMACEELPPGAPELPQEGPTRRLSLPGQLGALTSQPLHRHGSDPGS

SMILES	hERG current change (%, negative = inhibition) at 10uM [%]
CCOc1cc2c(cc1OCC)-n1cccc1C(c1cc(C)c(OC)cc1C)NC2.Cl (stereo not drawn)	-62.1
Cc1cc2c(cc1S(=O)(=O)NCc1ccccc1)NC(=O)CO2	-0.941
Cc1ccccc1N=C(NOCc1ccc(Cl)cc1Cl)c1nonc1N	-18.1
CC1(C)CC2(CCCN(C(=S)Nc3ccccc3)C2)CCO1 (stereo not drawn)	14
CN(CC(=O)NCc1ccc(Cl)cc1)S(=O)(=O)c1cccc2nsnc12	-52.5
Cc1cc(N2C(=O)C(O)=C(C(=O)c3ccco3)C2c2cccnc2)no1 (stereo not drawn)	7.94
COc1ccccc1Nc1nc(C)cc(=O)[nH]1	-7.91
CCCCCOc1ccccc1C(=O)NCC(=O)O	9.87
CCc1nnc(NC(=O)C2Cc3ccccc3C(=O)O2)s1 (stereo not drawn)	12.1
O=C(O)CCNS(=O)(=O)c1cccc2nsnc12	7.88
COc1ccc(-c2ccc(/C=C3/C(=N)N4C(C)=CSC4=NC3=O)o2)c([N+](=O)[O-])c1	9.58
Nc1cc(N)nc(SCC(=O)NCCC2=CCCCC2)n1	-8.78
COc1ccc(/C=C2\SC(=N)N(c3ccc(F)cc3)C2=O)cc1OC	17
COc1ccccc1-c1cc(C(=O)N/N=C/c2ccc(C)s2)c2ccccc2n1	7.8
CCOC(=O)c1ccccc1NC(=O)COC(=O)C1CCCC1	-2.49
COC(=O)C1C(=O)C2=C(CC1C)NC(C)=C(C(=O)OC1CCCC1)C2c1ccc(N(C)C)cc1 (stereo not drawn)	-8.36
COC(=O)c1sccc1NC(=O)CSc1ccccc1NC(=O)CNC(C)C	-6.04
COc1ccc(CCNC(=O)CSc2ncnc3c2oc2ccccc23)cc1OC	-13.1
Cc1ccc(C2C(C=Nc3c(C)n(C)n(-c4ccccc4)c3=O)=C(c3ccccc3)Oc3ccccc32)cc1 (stereo not drawn)	7.45
O=C(O)c1nn(-c2ccccc2)ccc1=O	12.8
O=[N+]([O-])c1cc(S(=O)(=O)N2CCCC2)ccc1N/N=C/c1cccnc1	4.5
COc1ccc([N+](=O)[O-])cc1NC(=O)C(C)Sc1nc(-c2ccccc2)cs1 (stereo not drawn)	8.17

SMILES	hERG current change (%, negative = inhibition) at 10uM [%]
Cc1ccccc1C(=O)O/N=C(\c1ccccc1)c1ccccn1	-29.2
Cc1cc(C)n(-c2cc(N3CCN(C(=O)c4ccc(C(C)(C)C)cc4)CC3)ccc2[N+](=O)[O-])n1	-34.4
COc1ccc(C2C3=C(CC(C)(C)CC3=O)Oc3ncn(CC(C)C)c(=N)c32)cc1 (stereo not drawn)	-69.1
O=C(CN1CCN(c2nc(-c3ccc(F)cc3)cs2)CC1)NCc1ccc2c(c1)OCO2	-28.9
CC1(c2ccc(OC(F)F)cc2)NC(=O)N(CC(=O)Nc2cccc(S(N)(=O)=O)c2)C1=O (stereo not drawn)	6.01
O=C(CN(C(=O)c1csnn1)c1ccc(F)c(Cl)c1)NCc1ccc(F)cc1	7.3
COc1ccc(C(CNC(=O)C2CCN(S(=O)(=O)c3ccc(F)cc3)CC2)N(C)C)cc1 (stereo not drawn)	-6.63
CCOC(=O)C1C(C)=C(Nc2ccc(OC)cc2)C(=O)N1c1ccc(OC)cc1 (stereo not drawn)	10.4
O=C(Cc1ccccc1)Nc1cccc(C(=O)N/N=C/c2ccco2)c1	-2.77
COc1cc(C(C)=O)ccc1OCC(O)CN1CCN(S(=O)(=O)c2ccccc2)CC1 (stereo not drawn)	-11.5
O=C(Nc1ccc2oc(-c3ccccc3F)nc2c1)c1ccc([N+](=O)[O-])o1	9.46
COc1ccc(CCNC(=O)c2ccc(OCc3c(C)noc3C)cc2)cc1OC	-3.43
COP(=O)(OC)C(Nc1cc(Cl)cc(Cl)c1)c1cccc(O)c1 (stereo not drawn)	15.9
CCOC(=O)c1cccc(NC(=O)C2CCN(c3ncnc4c3nc3n4CCCCC3)CC2)c1	11.5
CC(=O)N1CCN=C1SCc1cccc(F)c1	13.8
O=C(CSc1nnc(CN2CCOCC2)n1-c1ccccc1)Nc1ccc(Cl)cc1	-32.5
CC(=O)c1ccc(N2Cc3ccccc3C2=NC(=O)c2cccs2)cc1	-20.6
CCOc1ccc(-n2c(SCC(=O)Nc3ccccc3C)n[nH]c2=O)cc1	11.9
CCOC(=O)c1c(O)c2cc(Cl)ccc2n(CC)c1=O	10.4
C=CCn1c(O)c(CN2CCCCC2)c(C)c(C#N)c1=O	25.4
CC(NC(=O)C1CCCCC1)C(=O)NC1=NCCS1 (stereo not drawn)	-7.06
CCCC(=O)NC(c1ccco1)c1cc([N+](=O)[O-])c2cccnc2c1O (stereo not drawn)	6.41

SMILES	hERG current change (%, negative = inhibition) at 10uM [%]
CC(C)(C)C1CCc2c(sc(NC(=O)CSc3ncn[nH]3)c2C#N)C1 (stereo not drawn)	5.74
CCc1ccc(CN(C)C(=O)CCc2nc3ccccc3n(-c3ccc(OC)cc3)c2=O)cc1	-0.36
COc1cccc(-n2nc(C(C)=O)c(C#N)c2-c2ccco2)c1	23.5
COc1ccccc1CNS(=O)(=O)c1c(C(=O)N2CCCCC2)c(C)n(C)c1C	5.51
Cc1ccc(C)c(S(=O)(=O)NCCCc2ccccc2)c1	-1.65
C=CCn1c(SCC(=O)OCc2ccccc2)nc2c1c(=O)n(C)c(=O)n2C	-14.4
Cc1cc(OCC(=O)NCC(O)c2ccccc2)c2c(C)c(C)c(=O)oc2c1 (stereo not drawn)	-7.25
COc1ccc(/C=C2\Oc3cc(OC(=O)N4CCOCC4)ccc3C2=O)cc1	-1.63
c1ccc(-c2nc(-c3ccncc3)no2)cc1	11.8
O=C(N/N=C/c1ccccc1F)NC1CCCCC1	-18.5
C=CCc1c(O)nc(SCC(=O)c2ccccc2)[nH]c1=O	2.79
CC(C)Cc1ccc(CN2CCCC(NC(=O)CCN3CCOCC3)C2)cc1 (stereo not drawn)	-37.4
Cc1ccc(NC(=Nc2ccc(Br)cc2)N2CCOCC2)cc1C	-63.8
Cc1ccc(NC(=O)c2ccc(NCCCN3CCOCC3)c([N+](=O)[O-])c2)cc1Cl	-10.7
Clc1cccc(C2NCCc3[nH]cnc32)c1 (stereo not drawn)	-5.5
COc1cccc(/C=C/C(=O)OCC(=O)NCC2CCCO2)c1 (stereo not drawn)	12.7
O=C(CN1CCOCC1)Nc1c(C(=O)C2CC2)oc2ccccc12	-6.8
CCOc1ccc2nc(N(CCCN(C)C)C(=O)c3ccc(C(=O)c4ccccc4)cc3)sc2c1.Cl	-35.5
CCc1ccccc1Nc1nc2ccccc2n1CC	22.9
Cn1c(=O)[nH]c(=O)c2c1nc(CN1CCN(Cc3ccccc3)CC1)n2CC(N)=O	7.32
COC(=O)c1c(NC(=O)c2ccoc2C)sc2c1CCC2	-2.01
CC(=O)c1ccc(N(C(=O)CNC(=O)c2ccco2)C(C(=O)NC2CCCC2)c2ccc(C)o2)cc1 (stereo not drawn)	-8.48

SMILES	hERG current change (%, negative = inhibition) at 10uM [%]
O=c1cc(O)c2c(=O)n(C3CCCCC3)c3ccccc3c2o1	4.96
CCN1C(=O)/C(=C/C=C2/CCCN2C)OC1=S	-10.4
Nc1cc2ccncc2c2ccccc12	4.19
CC(C)/C(=N/Nc1ccccc1[N+](=O)[O-])c1ccccc1	29.9
CCOC(=O)C1=NOC(CN(c2ccccc2)S(=O)(=O)c2ccc(Cl)cc2)C1 (stereo not drawn)	-22.8
CCc1ccc(NC(=O)c2n[nH]c(=O)c3ccccc23)cc1	7.89
COc1ccc(O)c(/C=N/N2CCOCC2)c1	14.1
CN(CCOc1ccc(C=C2C(=O)NC(=O)NC2=O)cc1)c1ccccn1	17.2
Cc1cc(S(=O)(=O)Nc2c(C(=O)O)[nH]c3ccccc23)ccc1F	0.616
CCc1cc(C(=O)N(CC)CC(=O)Nc2ccc(OC)cc2)sc1C	-5.52
CCCN1CCN(CCCNC(=S)Nc2ccc(F)cc2)CC1	-13
Cn1c(CSCc2ccc(Cl)cc2)nnc1SCC(=O)Nc1nc2ccccc2s1	9.45
COC(=O)c1ccccc1NC(=O)c1cccc(NC(=O)C(C)C)c1	6.41
CC(Sc1nnc(C2CC2)n1C1CC1)C(=O)NC1(C#N)CCCCC1 (stereo not drawn)	-10.2
CCCC(=O)Nc1cc(C(=O)O)ccc1S(=O)(=O)c1ccc(C)cc1	11.6
CCN(CC)S(=O)(=O)c1ccc(C)c(NC(=O)CSc2nc3ccccc3[nH]2)c1	-14.9
CCN(CC)c1ccc(C2C(C(=O)OCCOC(C)C)=C(C)NC3=C2C(=O)CCC3)cc1 (stereo not drawn)	-12.3
O=C1N/C(=C/c2cccs2)C(=O)N1Cc1ccccc1F	14.5
CCOc1c2ccc(C(=O)NCc3ccc(OC(F)(F)F)cc3)cc2nn1CC	-17.4
COc1ccc(CCNC(=O)c2ccc(Cl)c(S(=O)(=O)N3CCCC3)c2)cc1	-56.6
O=C(NC(=S)Nc1ccc(Cl)cn1)c1cccs1	7.54
